# “And” between values parts separate entries of the source, which are not always exact repeats. Identical values can stand only once. Out of some 410,000 compounds screened, about 7,200 (1.8%) were called active. Inconclusive means that the source gave no clear call. Such entries were picked first, then a sample of the others. Calls follow the shape of the dose curve; as a rule, active = well fitted activation curve with a large enough effect; inconclusive = small, poorly fitted or top-dose-only effect, or another doubt; inactive = no such curve, though single readings can be large or run the other way. Potencies of inconclusive entries are doubtful fits and often do not repeat.
# Assay: qHTS of TDP-43 Inhibitors; also: nearly all actives have a fitted effect of over 50% in size; as to growth rescue (activation): % of control where 0% means no effect
# Details: TDP-43 expressing yeast growth rescue, BacTiter-Glo, 24 h; growth rescue (activation): at 46.1 µM (top of the series) unless noted
# In short: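 Cell-based yeast growth screen: TDP-43 expression induced in galactose, inoculum OD600=0.02 after raffinose pregrowth to mid-log. Read-out BacTiter-Glo luminescence at 24 hr, 30 deg C; inhibition of toxicity seen as signal increase.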
# Potency is read from the fitted curve at half-maximal effect; tags tell the direction and shape of the fitted curve.
SMILES,Potency,growth rescue (activation)
O=C(Nc1ccc(F)c(Cl)c1)c1cc(C2CCCN(S(=O)(=O)c3ccccc3)C2)on1 (centres undefined),"inconclusive: 28.2 µM [activator, partial curve]",
CCCCc1ccc(NS(=O)(=O)c2cc3c4c(c2)CC(=O)N4CCC3)cc1,"inconclusive: 11.2 µM [activator, partial curve]",
Cc1ccc(-c2cc(O)cc3sc(=O)oc23)cc1C,active: 11.2 µM,
N#Cc1ccc(/C=C/C(=O)c2cccnc2)cc1,"inconclusive: 31.6 µM [activator, single point]",
O=c1cc(-c2ccsc2)oc2ccccc12,"inconclusive: 11.2 µM [activator, partial curve]",
FC(F)(F)c1cnc(N2CCCN(C(=S)Nc3ccccc3)CC2)c(Cl)c1,"inconclusive: 25.1 µM [activator, single point]",
CCc1ccc2oc(-c3cc(NC(=O)c4cc(OC)c(OC)c(OC)c4)ccc3O)nc2c1,"inconclusive: 1.26 µM [activator, full curve, poor fit]",
Cn1c(=O)c2c(ncn2CC(=O)OCC(=O)c2ccc(Br)cc2)n(C)c1=O,"inconclusive: 31.6 µM [activator, partial curve, poor fit]",
CCOC(=O)c1[nH]c2ccc(Br)cc2c1NC(=O)CCN1CCC(C)CC1,"inconclusive: 7.08 µM [activator, partial curve]",
O=C(Nc1ccc(SC(F)F)cc1)c1cc(-c2ccncc2)nc2ccccc12,"inconclusive: 31.6 µM [activator, single point]",
CN(C(=O)CSc1ncnc2sccc12)C1CCCCC1,"inconclusive: 35.5 µM [activator, single point]",
COc1cccc(CN2C(=O)NC3(CCCCCC3)C2=O)c1,"inconclusive: 12.6 µM [activator, single point]",
O=C(Nc1ccc(F)cc1)c1cccc2c1C(=O)N(Cc1ccccn1)C2,"inconclusive: 20 µM [activator, single point]",
O=C(OCc1ccccc1)N1CCc2ccccc21,"inconclusive: 14.1 µM [activator, partial curve]",
Cc1ccc(NC(=O)CN(C)Cc2cc(=O)n3ccsc3n2)cc1,,inactive: -14.6%
CN(C)c1ccc(CNC(=O)CN2C(=O)C3CCCCN3c3ccc(C(=O)N4CCCC4)cc32)cc1 (centres undefined),,inactive: 0% [at 9.22 µM]
COc1ccc(CCNc2ncnc3c2cnn3-c2ccc(C)c(Cl)c2)cc1,,inactive: 17.5%
CCn1c(SCC(=O)Nc2nc(C)c(C)s2)nnc1-c1ccco1,,inactive: 1.83%
CCc1cc(C(=O)COc2ccccc2F)c(O)cc1O,"inconclusive: 10 µM [activator, partial curve]",
O=[N+]([O-])c1ccccc1NCCNS(=O)(=O)c1ccc(Cl)cc1,active: 11.2 µM,
Cc1ccc(-c2cc(-c3ccccc3)c(C#N)c(N)n2)o1,active: 22.4 µM,
O=c1c2ccccc2cnn1CCOc1cccc(Br)c1,"inconclusive: 14.1 µM [activator, partial curve]",

SMILES,Potency,growth rescue (activation)
Nc1ccc2c(c1)C(=Cc1cccnc1)c1ccccc1-2,"inconclusive: 12.6 µM [activator, single point]",
CC(=O)N(C(C)=O)N1C(=O)C2C3c4ccccc4C(c4ccccc43)C2C1=O (centres undefined),active: 22.4 µM,
COC1=C(Nc2ccccc2)C(=O)c2ccccc2C1=O,active: 12.6 µM,
COc1ccccc1CC(=O)Nc1ccc([N+](=O)[O-])cc1OC,active: 11.2 µM,
S=c1[nH]nc(Cc2cccc3ccccc23)o1,"inconclusive: 15.8 µM [activator, single point]",
Cc1cccc(NC(=S)NCCSc2ccc(Cl)cc2)c1,"inconclusive: 14.1 µM [activator, single point]",
CS(=O)(=O)N1CCC2CC1c1cc(-c3ccccc3)ccc12 (centres undefined),"inconclusive: 12.6 µM [activator, partial curve]",
Cc1cc(C(=O)OCC(=O)c2cccc([N+](=O)[O-])c2)c2cccc(C)c2n1,"inconclusive: 35.5 µM [activator, partial curve]",
Cc1ccc(Nc2nc(N)nc(CSc3nc4ccccc4s3)n2)cc1,"inconclusive: 2.51 µM [activator, full curve] and inconclusive: 3.16 µM [activator, partial curve]",
O=C(NCCOc1ccccc1)C1Nc2ccc(C(F)(F)F)cc2C2c3ccccc3CC12 (centres undefined),,inactive: 5.22%
N#Cc1c2c(c(-c3ccccc3Cl)[nH]c1=S)CCCC2,"inconclusive: 11.2 µM [activator, partial curve]",
CCOC(=O)n1c(=O)oc2ccc(Cl)cc21,active: 10 µM,
O=C(Nc1cccc(C(=O)OCc2cc(=O)n3c4c(sc3n2)CCCC4)c1)c1cccc(F)c1,,inactive: 11.5%
O=CN(c1ccccc1)c1ccc2ccccc2c1,"inconclusive: 11.2 µM [activator, single point]",
c1ccc(CNc2ncnc3ccccc23)cc1,"inconclusive: 7.94 µM [activator, partial curve]",
OCCOC1CCCc2oc(-c3ccccc3)c(C#CC3(O)CCCCC3)c21 (centres undefined),"inconclusive: 12.6 µM [activator, partial curve]",
Cc1cccc(OCc2n[nH]c(=S)n2Cc2ccccc2)c1,"inconclusive: 35.5 µM [activator, single point]",
COc1cc(NC(=O)c2cc(-c3cccc(O)c3)on2)cc(OC)c1OC,"inconclusive: 0.562 µM [activator, full curve, poor fit]",
Cc1ccc(NC(=S)NCc2ccc3[nH]c4c(c3c2)CCCC4)cc1,"inconclusive: 35.5 µM [activator, partial curve]",
c1ccc(N2CCN(c3nc(-c4cccs4)nc4ccccc34)CC2)cc1,"inconclusive: 20 µM [activator, single point]",
O=C1CC(c2ccco2)CC2=C1C=Nc1ccccc1N2 (centres undefined),"inconclusive: 12.6 µM [activator, partial curve]",
CCc1nc2cccnc2n1-c1ccc(CC(=O)O)cc1,"inconclusive: 3.16 µM [activator, partial curve]",
